We go through 22 molecules from paper PMC12136788.

The list shows a part of the results.

To fix the notation:
B1: chr5:72990507:72990614:+|CDS|ENSG00000157107|unk|total|mutant (ssRNA)
RNA: GGGAGUUCUACAGUCCGACGAUCGUAUGGGAUGUAUUCAAAACAUCUACAGAGAAAUCCGCAAAUUGUCACUUGGAUCUUGUCCGAAAAUUACAAGAAUUAAUAAAGGAAGUUCAGAAGUAUGGAGAAGAACAAGUAAAGUCUCAACAGAGGAUUGAGCAUCA
B2: chr13:106490488:106490589:-|3pUTR|ENSG00000125266|msi1|total|mutant (ssRNA)
RNA: GGGAGUUCUACAGUCCGACGAUCAGCCAUCAGAAGUUACUUUCCGGAUGGGGGAGAGGGGCGAGAAGGGGAAAAAUGGGAAACCGUCUGAUUUUAAUGAAAUCAAAUGUAUGUAUCAUCAGUUGGCUACGUUUUGGUUCUAUGCAACAGAGGAUUGAGCAUCA
B3: chr13:98915392:98915499:-|CDS|ENSG00000088387|unk|total|mutant (ssRNA)
RNA: GGGAGUUCUACAGUCCGACGAUCUCAUUUCAGAACAACAAAGUCAGGCGUUUUGCUUUUGAGCUCAAGAUGCAGGACAAAAGCCGUUAUCUCUUGGCAGCAGACAGUGAAGUGGAAAUGGAAGAAUGGAUCACAAUUCUAAAUCAACAGAGGAUUGAGCAUCA
B4: chr4:110049619:110049852:-|3pUTR|ENSG00000170522|msi1|FALSE|unique (ssRNA)
RNA: GGGAGUUCUACAGUCCGACGAUCUUGUUCAAUGUGACAUAAUAGUAUUAUAAUUGGUUAAGUAGCUUAAUGAUUAGGCAAACUAGAUGAAAAGAUUAGGGGCUUCCACACUGCAUAGAUUACACGCACAUAGCCACGCAUACACAACAGAGGAUUGAGCAUCA
B5: chr2:205797254:205797461:+|3pUTR|ENSG00000118257|msi1|FALSE|unique (ssRNA)
RNA: GGGAGUUCUACAGUCCGACGAUCUCACCCUCCCAUGAUGCGCAGUGUUCAGAAAGCUGGUAAGUCCUAGGGAUUUCCAGAAGUAGCCUGCAGAAGAAGGUAAGUUUGAAAGCCACUCCAGGGGUCCUGAUGCUGUCAUGCUCACAACAGAGGAUUGAGCAUCA
B6: chr1:108222463:108223704:-|three_prime_utr|ENSG00000196427|control|control|control (ssRNA)
RNA: GGGAGUUCUACAGUCCGACGAUCACUAUGCUCCUUUGAUUUGAGAAGCCACAUUCCAUCCCCCUCCAAUUGUGAUCAAUACCUAGGGAGACCAAUGCCCAGAUGGACAAAUAGCAUUGACCGGCGUUAGCCCUGUUUCUCAAUCAACAGAGGAUUGAGCAUCA
B7: ENSG00000198589:be:win_351|CDS|ENSG00000198589|bound_else_gene|NA|bound_elsewhere_windowed (ssRNA)
RNA: GGGAGUUCUACAGUCCGACGAUCUCUGAAGAAAAGCAUACGGAAUCUUCAAGUCUGCACUGAAGUAGGCCUUGUUGAAAAAGUGCUUGGGAAAAUUGAAAAAGUUGACAAUAUGAUAGCAGAUCUUUUGGUUGACAUGUUGGGCAACAGAGGAUUGAGCAUCA
B8: chr11:118254921:118255022:-|3pUTR|ENSG00000149573|unk|total|mutant (ssRNA)
RNA: GGGAGUUCUACAGUCCGACGAUCACAGCCUCAUUAUUAAGGUCUUAUUUAAUUUCAGAGUGUAAAUUUUUUCAAGUGCUCAUCCGGUUUUAUAAACAAGAAGCUACAUUUUUGCCCUUAAGACACUACUUACAGUGUUAUGACCAACAGAGGAUUGAGCAUCA
B9: chrX:101268252:101269192:-|three_prime_utr|ENSG00000102387|control|control|control (ssRNA)
RNA: GGGAGUUCUACAGUCCGACGAUCGUUGAAUCAGUUAUAUUUAUCUGUACCUUCUUUGCUACUUAAAAUAUGCUCACAGUUUGUAGUCAUGUAGAAAAGGCCAGUAUAAAAAUGUAGUAGACUUAAAGACCCCACUCGACCAUGCAACAGAGGAUUGAGCAUCA
B10: chr22:21445082:21445183:+|CDS|ENSG00000169635|msi1|FALSE|bound_elsewhere (ssRNA)
RNA: GGGAGUUCUACAGUCCGACGAUCCCUGUGUGACGUCAUCAUCAUGGUGGAGAACUCCAUCUUCCGGGCCCACAAGAACGUCCUAGCCGCCAGCAGCAUCUAUUUCAAGUCCCUGGUCCUGCACGACAACCUCAUCAACCUGGACAACAGAGGAUUGAGCAUCA
B11: chr7:27153715:27154908:-|three_prime_utr|ENSG00000122592|control|control|control (ssRNA)
RNA: GGGAGUUCUACAGUCCGACGAUCAAAAGACACCCCCAACCCCAGGCCAGCCGGCCCUGCUCUGGCGCGUCCAAAAUACUACCUAGCACAGGCCUCUGCUCGAGGCACCCCCAAACUACCUAUGUAUCCAGCCCCAGAGGGCCUCAACAGAGGAUUGAGCAUCA
B12: chr17:8173470:8173636:-|3pUTR|ENSG00000179029|msi1|FALSE|unique (ssRNA)
RNA: GGGAGUUCUACAGUCCGACGAUCUGUUUGUCUGUAUCGUCAGGUGGGAUAAUCCUUACCUGUUCCUCCUCCGGAGGGCAGAUUAGAACAUGAUGAUUGGAGAUGCAUGAAACGUGAUUAACGUCUCUGCGUAAUCAGGACUUGCAACAGAGGAUUGAGCAUCA
B13: chr1:52238154:52238269:+|CDS|ENSG00000157077|unk|total|mutant (ssRNA)
RNA: GGGAGUUCUACAGUCCGACGAUCUCUGACCGUCCCGCCAGUGUCUGUUCCCCUUCACAAUUAAAGGAUGACGGAAGUACCGGCCGAGACCCCUCCAUGUCUGCGAUUACAAGUUUAACGGUUGAUUCAGUAAUCUCAUCCCAGCAACAGAGGAUUGAGCAUCA
B14: chrX:129805617:129805718:-|3pUTR|ENSG00000188706|msi1|total|mutant (ssRNA)
RNA: GGGAGUUCUACAGUCCGACGAUCUCUUUUCCCAUCCGAUAUAUGUAAGCCGUUGCCGCCGAGAUAAUAAUUGACAUUUCUCGCCGACUACCCAGAAACUUUUUUAAUACCUGUGCCAUUCUCAAUAAGAAUUUAUGAGAUGCCCAACAGAGGAUUGAGCAUCA
B15: chr10:91630394:91630495:-|CDS|ENSG00000119938|unk|total|mutant (ssRNA)
RNA: GGGAGUUCUACAGUCCGACGAUCCUUGGACCUUAAUGAUAUCUCCUCUGCCUUAAAACACCACGAGGAGAAAAACUUGAUUUCCGAUUUCCCUCAGCCUUCAACCGAUUACUUAAGUUUCCGGAGCCACUUUCAGAAGAACUUCAACAGAGGAUUGAGCAUCA
B16: chr16:48080881:48083801:-|three_prime_utr|ENSG00000140798|control|control|control (ssRNA)
RNA: GGGAGUUCUACAGUCCGACGAUCUGAGUUUGACAAGCCUGAAGUCCUUGCAGAGAAGCCAGAUUCUGCAUUUGCGAUGUUACUAGCAGCAGAAGUCAGAUUGUAGAGGUCCUGGCGGCUGAUUCUAGAGGAGGAAGAGGCUCUCAACAGAGGAUUGAGCAUCA
B17: chr7:158693335:158693439:-|CDS|ENSG00000146918|unk|total|mutant (ssRNA)
RNA: GGGAGUUCUACAGUCCGACGAUCAAGGAAACAGAAAGAAGAAUUAUGGCAAAGGCUGAAGAAUUUAUUGACAGAUGUGUUGUCCGAAAGCCCAGUGGAUGGGUGGCAGGCCGUGGAAGCCCAGGGUGAAGACAAUAUGGAAACCAACAGAGGAUUGAGCAUCA
B18: chr1:205620050:205620151:-|CDS|ENSG00000158711|unk|total|mutant (ssRNA)
RNA: GGGAGUUCUACAGUCCGACGAUCGCCAAUGGAACUUCCAGAGAAUUUGUCACUGGAGCCUAAAGACCAGGAUUCAGUCUUGCCCGAAAAGGACAAAGUAAAUAAUUCAUCAAGAUCCAAGAAACCCAAAGGGUCCGAACUGGCCAACAGAGGAUUGAGCAUCA
B19: chr20:32237940:32238012:+|3pUTR|ENSG00000101346|msi1_unk|total|mutant (ssRNA)
RNA: GGGAGUUCUACAGUCCGACGAUCUUUCAAAGAUACAAAUAUUUACACCGUUUUAAUCAUGUAAUAUAUACAAUUUAAUGUCCCCGUGUUUUACUUAACCGUGUAUCAUGUUUUCCCUGUUGGUAUGCCGCCUGGAUAAAUGCUCAACAGAGGAUUGAGCAUCA
B20: chr8:43200960:43201061:+|3pUTR|ENSG00000165102|unk|total|mutant (ssRNA)
RNA: GGGAGUUCUACAGUCCGACGAUCCAAAUUCUAAGUGUUUUCUCUUCCGGUUUCCCUGGCUUUGUGAAUGGAUCAUGUGUCUCCCGGUAUAAACCUGACAUCAUCUUUCCACCCGGCUUACCUCCACCAGAUCUCCCCAGUUCUCAACAGAGGAUUGAGCAUCA
B21: ENSG00000070961:be:win_2251|CDS|ENSG00000070961|bound_else_gene|NA|bound_elsewhere_windowed (ssRNA)
RNA: GGGAGUUCUACAGUCCGACGAUCGAGCAAGAGAGGAUAGACAAGAUUUGGCCAAAACUUCGAGUACUUGCAAGAUCAUCUCCUACUGAUAAGCAUACACUGGUUAAAGGUAUAAUUGACAGCACUGUCUCAGACCAACGCCAGCAACAGAGGAUUGAGCAUCA
B22: chrX:18604022:18604123:+|CDS|ENSG00000008086|msi1|total|mutant (ssRNA)
RNA: GGGAGUUCUACAGUCCGACGAUCGACGAAGGUCUCCCUGCCAAUGAAAGCUUCCUAAAUGGAAACCUUGCUGGAGCCCGUCUCCGUCCACUGCACACCAAAACCUACCAAGCAAGCAGCCAGCCUGGGUCUACCAGCAAAGAUCAACAGAGGAUUGAGCAUCA

This assay deals with MSI1 full-length (mouse, UniProt Q61474 1-362). Put plainly: nsRBNS (natural sequence RNA bind-n-seq); RBNS binding buffer (assumed for nsRBNS): 25 mM Tris pH 7.5, 150 mM KCl, 3 mM MgCl2, 0.01% Triton X-100, 500 ug/ml BSA, 20 U/ml SUPERase-In, 4 C; UNK is unkempt and MSI1 is Musashi-1; names of the RNAs are library labels; protein concentration not given here; high values mean tight binding.
Sequence of UniProt Q61474 (Q61474 whole entry): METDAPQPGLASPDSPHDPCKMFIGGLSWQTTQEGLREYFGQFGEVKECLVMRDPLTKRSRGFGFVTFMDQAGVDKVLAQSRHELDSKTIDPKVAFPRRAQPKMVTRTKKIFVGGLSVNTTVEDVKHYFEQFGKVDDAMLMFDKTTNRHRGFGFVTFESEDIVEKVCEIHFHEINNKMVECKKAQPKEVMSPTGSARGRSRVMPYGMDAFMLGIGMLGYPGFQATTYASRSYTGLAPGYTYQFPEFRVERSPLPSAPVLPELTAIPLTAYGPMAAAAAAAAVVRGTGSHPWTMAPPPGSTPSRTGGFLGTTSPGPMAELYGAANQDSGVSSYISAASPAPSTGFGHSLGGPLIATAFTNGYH
Regarding B1, the binding signal was found to be 0.443 enrichment R.

B2 registered a binding signal of 0.665 enrichment R.

On to B3, for which the binding signal came to 0.336 enrichment R.

The molecule B4 registered a binding signal of 43.1 enrichment R.

Turning to B5, the binding signal was 0.607 enrichment R.

The molecule B6 came in with a binding signal of 0.521 enrichment R.

B7: the binding signal was determined as 0.235 enrichment R.

For B8, the binding signal amounted to 0.983 enrichment R.

B9: the binding signal is 2.46 enrichment R.

For B10, the binding signal was 0.576 enrichment R.

B11 registered a binding signal of 1.05 enrichment R.

Take B12: the binding signal is 0.433 enrichment R.

B13 came in with a binding signal of 0.373 enrichment R.

Molecule B14 registered a binding signal of 0.608 enrichment R.

Consider B15, for which the binding signal is 0.264 enrichment R.

Molecule B16 gave a binding signal of 0.754 enrichment R.

In turn, B17 displayed a binding signal of 0.587 enrichment R.

On to B18, for which the binding signal came to 0.692 enrichment R.

As for B19, the binding signal was determined as 1.18 enrichment R.

B20 showed a binding signal of 0.548 enrichment R.

B21 had a binding signal of 0.323 enrichment R.

On to B22, for which the binding signal came out at 0.487 enrichment R.
